# Test results from the supplement of paper PMC3334620.
# The full ranking holds about 33,000 sequences; the median of “E-score (-0.5 to 0.5)” is about -0.054, and the highest 2% start at about 0.39. The list shows a part of the results.
# Target: Ylr278c (UniProt Q05854)
# Assay: PBM E-score (8-mer binding enrichment) (E-score (-0.5 to 0.5)); higher = stronger / more preferred TF binding; most listed sequences are background and not binding sites
# Conditions: protein concentration: 200 nM; construct: GST-DNA-binding domain
# Procedure, shortened: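 GST-tagged yeast TFs (full-length or DNA-binding domain) were made by PURExpress in vitro transcription/translation and applied at about 100-200 nM to universal all-10-mer Agilent arrays. The arrays were made double-stranded by primer extension, on fresh or once-stripped slides. Bound protein was detected with fluorescent anti-GST, and scans were normalised with masliner. Each ungapped eight-base word, pooled with its reverse complement, received an E-score (modified Wilcoxon-Mann-Whitney statistic) from the Universal PBM Analysis Suite.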
row,Sequence,PBM E-score
1,AAGGGGTG,-0.21
2,GCCTGCAA,-0.162
3,AGTGTAGC,-0.058
4,GATCTGCC,0.0547
5,AAAGAATC,-0.0972
6,CCGTTCCC,0.169
7,ACAGCAAT,-0.00923
8,GAGCAGCA,0.0351
9,ATACGATC,-0.0267
10,GCGTAGCA,-0.0336
11,TAACCCTA,-0.34
12,ACCGCCGT,0.241
13,TAGTTTAA,-0.149
14,CATGCATG,-0.202
15,AGTGGCCA,-0.214
16,AACTCATT,0.0884
17,CTAAGTAG,-0.222
18,AGTACCGG,0.35
19,AGAATACC,0.0273
20,GACCGGGC,0.214
21,CGAGACTC,0.0377
22,GAGGTCGC,0.0413
23,AATTACCA,-0.0424
24,GCCCATAA,0.0656
25,CGCTTACA,-0.112

row,Sequence,PBM E-score
1,CTAACCTA,-0.0668
2,GAATCGAC,0.205
3,GAGACTGA,-0.0208
4,CTGTAGCC,-0.204
5,GGGCAGGA,-0.176
6,AAGCTTCC,-0.0978
7,ATTATGTC,-0.243
8,GCTCACCA,-0.236
9,TGTAGCAA,0.0848
10,GCTCCCCA,-0.302
11,CTTGGGCA,-0.0334
12,ACCCTGCA,0.00052
13,CAACATGG,-0.171
14,ATGGCACG,0.0729
15,AACGATTA,-0.0984
16,ATCGGCGA,0.327
17,ATACGTAT,0.0699
18,ATAGATTC,-0.177
19,GGGACGTA,0.00257
20,AAAAGTGT,-0.113
21,ATTTTACG,0.0886
22,CGAATGAG,0.0748
23,ACTGACAT,-0.183
24,CCTCTAAC,-0.103
25,GGCTAAAA,-0.0862

row,Sequence,PBM E-score
1,AGACGAGA,-0.181
2,ATAGATCC,0.119
3,TAATAACA,-0.0361
4,GCCATGTA,-0.0791
5,ACGATCCA,-0.00831
6,CAGTAATC,-0.112
7,AGACAAAG,-0.172
8,AACTTTAT,0.00199
9,CCACTCCG,0.437
10,GTATTGGA,-0.0601
11,AAGGTTGG,-0.12
12,GATTGAGA,0.0599
13,CTTAGTCA,-0.184
14,AAGCTACG,-0.227
15,AACGATAC,-0.245
16,GCATCGCA,-0.0161
17,AATTAGAT,-0.0362
18,GCCGAAAC,0.29
19,GATAGTCC,0.0524
20,GCAATGCC,0.199
21,CCACGTAA,-0.101
22,ACCGGATC,0.354
23,ATATTCAA,0.00075
24,GGACAAGA,0.0181
25,CCTAAGAA,-0.261

row,Sequence,PBM E-score
1,GTCCCCCA,-0.315
2,CTACACAC,-0.114
3,AATAAGCG,-0.0642
4,CCCGTAGC,-0.061
5,AATTCACA,-0.0773
6,CAACGTTA,-0.186
7,GACGGGGC,0.123
8,GTATTCCA,-0.0723
9,CGAAGTGC,0.118
10,CCTAGGCG,-0.222
11,TTACTAAA,-0.221
12,ATAATGGA,-0.0453
13,GTCAGAAA,-0.243
14,ACACAACC,-0.0894
15,CATGATTC,-0.107
16,AATAAAAC,-0.105
17,GGCAAGTA,-0.0613
18,CGTGCAGC,0.0102
19,GGGGGCCA,-0.0264
20,ATTACTAA,-0.0856
21,ACCCATTC,-0.02
22,ATACTATG,0.0207
23,ACATGCTG,-0.267
24,CATTTGGA,0.04
25,AGAGTTCA,-0.234

row,Sequence,PBM E-score
1,AACATATA,0.00185
2,AGGGCTGG,-0.154
3,CTAAGTTC,-0.209
4,CGGGGGGA,-0.0265
5,GACCCGTC,-0.062
6,GGAGATCC,0.38
7,AATGTCTA,-0.289
8,TTGCAAAA,0.0491
9,CACCGACC,0.192
10,CAAGCAAG,-0.129
11,AATGTTAA,-0.0403
12,ACTGCGAT,0.0797
13,AGACCGCA,0.0287
14,AGCTCCAA,-0.207
15,CCTGGCAA,-0.172
16,GGCCTCGA,-0.16
17,ATTACCGC,0.259
18,GTCACTAA,-0.182
19,AGGCGCGA,0.0365
20,GCTTCCCC,-0.0315
21,ATCAACCC,0.142
22,TCAAGGGA,-0.109
23,CATTTCCG,0.406
24,AAGGGTGC,-0.101
25,TAGTCTCA,-0.158

row,Sequence,PBM E-score
1,ACCCCACA,0.0123
2,CAAAAAGA,-0.0543
3,CGTTAGGC,0.00511
4,ACCCAGAG,-0.0923
5,CTACGACA,-0.0581
6,CCCGCCAG,0.177
7,CTCGGAGC,0.431
8,AACCTACT,-0.0251
9,CGTGTCAA,-0.122
10,CAGTCCCG,0.199
11,GCGATTAA,0.055
12,AACTATAT,-0.0181
13,AGTAGCTG,-0.124
14,CGTGCTAG,-0.299
15,GAGGCGTA,-0.0571
16,ATCATCTG,0.0272
17,AAGATTTC,0.12
18,ACCATTTG,-0.00863
19,TCAGACCA,-0.124
20,GAACTAAA,0.0635
21,AGCTTGAA,-0.122
22,CCTTATGA,-0.103
23,CCTTTCAG,-0.192
24,GGAGCGCA,0.162
25,CAAGTTAC,0.0544

row,Sequence,PBM E-score
1,CGCTTCCA,-0.0427
2,GTTTGGAA,-0.0915
3,ATTTTACC,0.226
4,GGACAGAC,0.0479
5,CGCGACAC,0.179
6,ATAGGCGG,0.301
7,CGAGGAAG,0.0261
8,AGTGCGTA,-0.0325
9,GAAGGATC,-0.123
10,ACCACGTA,-0.314
11,CGTGAGCA,-0.0624
12,CAATACCG,0.275
13,ACTTCTCA,-0.222
14,GACAGTGC,0.0683
15,CCTTAACG,0.00319
16,AAATGCGG,0.308
17,CACCACCA,-0.0579
18,ACAATGTG,-0.186
19,GTTTGAAA,-0.0339
20,CGCTTACC,0.0277
21,GCCACATA,-0.0623
22,ACATGCGT,-0.171
23,CGACGGAC,0.337
24,GATGTGTA,-0.0743
25,CCATTGGA,-0.0795

row,Sequence,PBM E-score
1,CTTTGCGC,0.105
2,CATTTCGC,0.107
3,ATCAAGCG,-0.0362
4,AAAATGAA,-0.155
5,GCGCATTA,0.129
6,AGATCTTA,-0.141
7,GTTACTCA,-0.114
8,CTTGCGCA,0.0522
9,CCGACGGC,0.315
10,CGTGATGC,0.073
11,CGGGATGC,0.21
12,AAGGTAAA,0.00542
13,ACCATTAT,-0.0869
14,CGCGTCGC,-0.0249
15,TGACATAA,-0.00924
16,AACAATCT,-0.152
17,TATTAACA,-0.0291
18,AGAAGTGG,-0.0693
19,CACGATGG,-0.224
20,AATGCGAG,0.00781
21,GCACCTAA,-0.107
22,AGTCGGTG,0.0664
23,ACGCGAAT,-0.0806
24,GGACTAGA,0.0963
25,ACATGTAT,-0.012

row,Sequence,PBM E-score
1,CGCAAGCA,0.00834
2,CGCCCTCA,-0.0239
3,AGATGACC,0.00414
4,ATGAAGGC,-0.045
5,CTTAACCA,-0.334
6,TAAACGAA,-0.02
7,ACCGCAGG,0.115
8,AACTTCTT,-0.119
9,CATGTGAC,-0.378
10,AACATAGA,-0.0265
11,CCATATCC,0.139
12,AGGGCGAT,-0.234
13,GCCTTCGC,0.133
14,CGTGCGAA,0.0158
15,ACCCAAAA,-0.181
16,CAAGGCAA,-0.259
17,GGTACGTA,-0.234
18,TATATACA,-0.165
19,ACCCGGCG,0.258
